Source: the RNAGym collection of RNA variant scans (doi:10.1073/pnas.2313332121)
Variants at the floor of the assay are shown more often than the library holds them.

B1: TPR 5TU (parent)
chain: GGAUCUUCUCGAUCUAACAAAAAAGACAAAUCUGCCACAAAGCUUGAGAGCAUCUUCGGAUGCAGAGGCGGCAGCCUUCGGUGGCGCGAUAGCGCCAACGUUCUCAACUAUGACACGCAAAACGCGUGCUCCGUUGAAUGGAGUUUAUCAUG

Variants of: B1
Experiment: polymerase ribozyme fitness, log enrichment relative to wild type (log ratio); higher = more active; in vitro selection for triplet polymerase activity
How it was run: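 To select mutant libraries of each subunit of a heterodimeric triplet polymerase ribozyme, built by PCR and transcribed, each was annealed with a biotinylated primer, partner subunit and triplets, then incubated frozen at −7 °C. Extended constructs were gel-excised, captured on streptavidin beads and amplified by RT-PCR, in one round carried out in triplicate. Illumina sequencing of input and output libraries kept genotypes with ≥10 input reads and ≥1 read per output. Fitness is the base-2 logarithm of genotype enrichment relative to wild-type enrichment, from inverse-variance-weighted replicate averages.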

Polymerase ribozyme fitness (log ratio), -3.4:
GGAUCUUCUCGAUCUAACAAAAAAGACAUAUCUGCCACAAAGCUUGAGAGCAUCUUCGGAUGCAGAGGCGGCAGCCUUCGGUGGCGCGAUAGCGCCAACGUUCUCAACUAUGACACGCAAAACGCGUGCUCCGUUGAAUGGAGUUUAUCAUG [A29U]

Polymerase ribozyme fitness (log ratio), ≤ -4.2:
GGAUCUUCUCGAUCUAACAAAAAAGACAGAUCUGCCACAAAGCUUGAAAGCAUCUUCGGAUGCGGAGGCGGCAGCCUUUGGUGGCGCGAUAGCGCCAACGUUCUCUACUAAGACACGCAAAACGCGUGCUCCGUUGAAUGGAGUUUAUCAUG [A29G G48A A64G C79U A106U U111A]
GGAUCUUCUCGAUCUAACAAAAAAGACAGAUCUGCCACAAAGCUUGAGAGCAUCUUCCGAUGCGGAGGCGGCAGCCUUCGGUGGCGCGAUAUCGCCAACGUUCUCAACUAUGACACGCAAAACGCGUGCUGCGUUGAAUGGAGUUUAUCAUG [A29G G58C A64G G92U C131G]
GGAUCUUCUCGAUCUAACAAAAAAGACAGAUCUGCCACAAAGCUUGAGAGCAUCUUCCGAUGCAGAGGCGGCUGCCUUCGGUGGCGCGAUACCGCCAGCGUUCUCAACUAUGACACGCAAAACGAGUGCUCCGUUGAAUGGAGUUUAUCAUG [A29G G58C A73U G92C A98G C125A]
GGAUCUUCUCGAUCUAACAAAAAAGACAGAUCUGCCACAAAGCUUGAGAGCAUCUUCCGAUGCAGAGGCGGCAGCCUUCGGUGGCGCGAUAACGCCAACGAUCUCAAGUAUGACACGCAAACCGGGUGCUCCGUUGAAUGGAGUUUAUCAUG [A29G G58C G92A U101A C108G A122C C125G]
GGAUCUUCUCGAUCUAACAAAAAAGACAGAUCUGCCACAAAGCUUGAGAGCAUCUUCGUUUGCAGAGGCGGCAGCCUUCGGUGGCGCGAUAGCGCCAACGUUCUCAACUAUGAUACGCAAAACGCGUGCUCCGUUGAAUGGAGUUUAUCAUG [A29G G59U A60U C114U]
GGAUCUUCUCGAUCUAACAAAAAAGACAGAUCUGCCACAAAGCUUGAGAGCAUCUUCGGAUGCAGAGGCGGCAGCCUUCCGUGGCGCGACAGCGGCAACGCUAUCAACUAUGACACGCAAAACGCGUGCUCCGUUGAAUGGAUUUUAUCAUG [A29G G80C U90C C95G U101C C103A G143U]
GGAUCUUCUCGAUCUAACAAAAAAGACAGAUCUGCCACAAAGCUUGAGAGCAUCUUCGGAUGCAGAGGCGGCAGCCUUCGGUGGCACGAUAACGACAACGUUCUCCACUAUGACACGCAAAACGCGUGCUCCGUUGAAUGGAGUUUAUCAUG [A29G G86A G92A C95A A106C]
GGAUCUUCUCGAUCUAACAAAAAAGACAGAUCUGCCACAAAGCUUGAGAGCAUCUUCGGAUGCAGAGGCGGCAGCCUUCGGUGGCGCUACAGCGCCAACGUUCUCAACUAGGACACGCAAAACGCGUGCUCCGUUGAAUGGAGUUUAUCAUG [A29G G88U U90C U111G]
GGAUCUUCUCGAUCUAACAAAAAAGACAGAUCUGCCACAAAGCUUGAGAGCAUCUUCGGAUGCAGAGGCGGCAGCCUUCGGUGGCGCGAUAGCUCCGACGUUCUCAACUAUGACACGCAAAACGCGUGCUCCGUUGAAUGGAGUUUAUUAUG [A29G G94U A97G C149U]
GGAUCUUCUCGAUCUAACAAAAAAGACAGAACUGCCACAAAGGUUGAGAGCAUCUUCGGAUGCAGAGGCGGCAGCCUUCGGUGGCGCGAUAGCGCCAACGUUCUCAACUAUGACACGCAAAACGCGUGCUCCGUUGAAUGGAGUUUAUCAUG [A29G U31A C43G]
GGAUCUUCUCGAUCUAACAAAAAAGACAGAACUGCCACAAAGCUUGAGAGCAUCUUCGGAUGCAGAGGCGGCAGCCUUCGGUGGCGCGAUAGCGCUAACGUUCUCAACUAUGAUACGCAAAACGCGUGCUCCGUUGAAUCGAGUUUAUCAUG [A29G U31A C96U C114U G140C]
GGAUCUUCUCGAUCUAACAAAAAAGACAGAUCUGCCACAAAGCUAGAGAGCAUCUUCGGAUGCAGAGGCGGCAGCCUUCGGUGGUGCAAUAGCGCCAACGUUCUCAACUAUGACACGCAAAACGCGUGCUCCGUUGAAUGGAGUUUAUCUUG [A29G U45A C85U G88A A150U]
GGAUCUUCUCGAUCUAACAAAAAAGACAGAUCUGCCACAAAGCUAGAGAGCAUCUUCGGAUGCAGAGGCGGCAGCCUUCGGUGGCGGGAUAGUGCCAACGUUCUCAACUAUGACACGGAAAACUCGUGCUCCUUUGACUGGAGUUUAUCAUG [A29G U45A C87G C93U C118G G124U G133U A138C]
GGAUCUUCUCGAUCUAACAAAAAAGACAGAUCUGCCACAAAGCUCGAGAGCCGCUUCGGAUGCAGAGGCGGCAGCCUUCGGUGGCGCGAUAGCGCCAACGUUCUCAACUAUGACACGCAAAACGCGUGCUCCGCUUAAUGGAGUUUAUCAUG [A29G U45C A52C U53G U134C G136U]
GGAUCUUCUCGAUCUAACAAAAAAGACAGAUCUGCCACAAAGCUUGAGAGCAUCAUCGGAUGCAGAGGCGGCAGCCUUCGGUGGCGCGAUAGCGUCAACGCUCUCAACAAUGACACGCAAAACGCGUGCUCCAUUGAAUGGAGUUUAUCAUG [A29G U55A C95U U101C U109A G133A]
GGAUCUUCUCGAUCUAACAAAAAAGACAGAUCUGCCACAAAGCUUGAGAGCAUCUACGGAUGCAGAGGCGGCAGCCUUCGGUGGCGGGAUAGCGCCAAGGUUCUCAACUAUGACACGCAAAACGCGUGCUCCGUUGAAUGGAGUUUAUCAUG [A29G U56A C87G C99G]
GGAUCUUCUCGAUCUAACAAAAAAGACAGAUCUGCCACAAAGCUUGAGAGCAUCUUCGGAUGCAGAGGCGGCAGCCUUCGGCGGCGCGAUAACGCCAACGUUCUCAACUAUGACACGCAAACCGCUUGCUCCGUUGAAUGGAGUUUAUCAUG [A29G U82C G92A A122C G126U]
GGAUCUUCUCGAUCUAACAAAAAAGACAGAUCUGCCACAAAGCUUGAGAGCAUCUUCGGAUGCAGAGGCGGCAGCCUUCGGUGGCGCGAUAGCGCCAACGUUCUCAACUAAGACACGCAAAACGCGUGCUCCGUUGAAUGGAGUUUAUCAUG [A29G U111A]
GGAUCUUCUCGAUCUAACAAAAAAGACAGAUCUGCCACAAAGCUUGAGAGCAUCUUCGGAUGCAGAGGCGGCAGCCUUCGGUGGCGCGAUAGCGCCAACGUUCUCAACUAUGACACGCAAAACGCGUGCUCCGUUGAAUGGAGUGUAUGAUG [A29G U145G C149G]
GGAUCUUCUCGAUCUAACAAAAAAGACAUCUCUGCCACAAAGCUUGAGAGCAUCUUCGGAUGCAGAGGCGGCAGCCUUCGGUGGCGCGAUAGCGCCAACGUUCUCAACUAUGACACGCAAAACGCGUGCGCCGUUGAUUGGAGUUUAUCAUG [A29U A30C U130G A138U]
GGAUCUUCUCGAUCUAACAAAAAAGACAUGUCUGCCACAAAGCUUGAGGGCAUCUUCGGAUGCAGAGGCGGCAGCCUUCGGUGGCGCGAUAGCGCCAACGUUCUCAACUAUGACGCGCAAAACGCGUGCUCCGUUGAAUGGAGUUUAUCAUG [A29U A30G A49G A115G]
GGAUCUUCUCGAUCUAACAAAAAAGACAUGUCUGCCACAAAGCUUGAGAGCAUCUUCGGAUGCAGAGGCGGCAGCCUUCGGUGGCUCGAUAGCGCCAACGUUCUCAACUAUGACACGCAAAACGCGUGCUCCGUUGAAUAGAGUUUAUCAUG [A29U A30G G86U G140A]
GGAUCUUCUCGAUCUAACAAAAAAGACAUUUCUGCCACACAGCUUGAGAGCAUCUUCGGAUGCAGAGGCGGCAGUCUUCGGUGGCGGGAUAGCGCCAACGUUCUCAACUAUGACACGCAAAACGCGUGCUCCUUUGAAUGGAGUAUAUCAUG [A29U A30U A40C C75U C87G G133U U145A]
GGAUCUUCUCGAUCUAACAAAAAAGACAUUUCUGCCACAAAGCUUGAGAGCAUCUUCGGAUGCAGAGGCGGCAGCCUUCGGUGGCGGGAUAGCGCCAACGUUCUCAACUAUGAAACGCAAAACGCGUGCUCCGUUGAAUGGAGAUUAUCAUG [A29U A30U C87G C114A U144A]
GGAUCUUCUCGAUCUAACAAAAAAGACAUUUCUGCCACAAAGCUUGAGAGCAUCUUCGGAUGCAGAGGCGGCAGCCUUCGGUGGCGCGAUAGCGACAACGUUCUCAUGUAUGACCCGCAAAACGCGUGCUCCGCUGAAUGGAGUUUACCAUG [A29U A30U C95A A107U C108G A115C U134C U148C]
GGAUCUUCUCGAUCUAACAAAAAAGACAUAUCUGCCCCAAAGCUUGAGAGCAUCUUCGGACGCAGAGGCGGCAGCCUUCGGUGGCGCGAUAGGGCCAACGUUCUCAACUAUGACCCGCAAAACGCGUGCUCCAUUGAAUGCAGUUUAUCAUG [A29U A37C U61C C93G A115C G133A G141C]
GGAUCUUCUCGAUCUAACAAAAAAGACAUAUCUGCCACGAAGCUUGAGAGCAUCUUGGGAUGCAGCGGCGGCAGCCUUCGGUGGGGCGAUUGCGCCAACGUUCUCAACUAUGACACGCAAAACGCGUGCUCCGUUGAAUGGAGUUUAUCAUG [A29U A39G C57G A66C C85G A91U]
GGAUCUUCUCGAUCUAACAAAAAAGACAUAUCUGCCACGAAGCUUGAGAGCAUCUUCGGAUGCAGAGGCGGCAGCCUUCGGUGGCGCGAUAGCGCCAACGUUGUCAACUAUGACACGCAAAACGCGUGCUCCGUUGUAUGGAGUUUAUCAUG [A29U A39G C103G A137U]
GGAUCUUCUCGAUCUAACAAAAAAGACAUAUCUGCCACGAAGCUUGAGAGCAUCUUCGGAUGCAGAGGCGGCAGCCUUCGGUAGCGCGAUAGCGCCAACGUUCUCAACUAUGACACGCAAAACGCGUGCUCCGUUGAAUGGAGUUUAUCAUG [A29U A39G G83A]
GGAUCUUCUCGAUCUAACAAAAAAGACAUAUCUGCCACACAUCUUGAGAGCAUCUUCGGAUGCAGAGGCGCCAGCCUUCGGUGGCUCGAUAGCGCCCACGUUCUCAACUAUGACACGCAAAACGCGUGCUCCGAUGAAUGGAGUUUAUCAUG [A29U A40C G42U G71C G86U A97C U134A]
GGAUCUUCUCGAUCUAACAAAAAAGACAUAUCUGCCACACAGCUUGAAAGCAACUUCGGAUGCAGAGGCGGCAGCCUUCAGUGGCGCGAUAGCGCCAACGUUCUCAACUAUGACACGCAAAACGCGUGCUCCGUUGAAUGGAGUUUAUCAUG [A29U A40C G48A U53A G80A]
GGAUCUUCUCGAUCUAACAAAAAAGACAUAUCUGCCACAUAGCUUGAGAGCGUAUUCGGAUGCAGAGGCGGCAGCGUUCAGUGGCGCGAUAGCGCCAACGUUCUCAACAAUGACACGCAAAACGCGUGCUCCGUUGAAUGGAGUUUAUCAUG [A29U A40U A52G C54A C76G G80A U109A]
GGAUCUUCUCGAUCUAACAAAAAAGACAUAUCUGCCACAACGCUAGAGAGCAUCUUCGGAUGCAGAGGCGGCAGCCUUCGGUGGCGCGAUAGCGCCAACGUUUUCAACUAUGACACGCAAAGCGCGUGCUCCGUUGAAUGGAGUUUAUCAUG [A29U A41C U45A C103U A122G]
GGAUCUUCUCGAUCUAACAAAAAAGACAUAUCUGCCACAAUGCUUGAGAGCAGCUUCGGAUGCAGAGGCGGCAGCCUUCGGUGGCGCUGUAGCGCCAACGUUCUCAACUAUGACACACAAAACGCGUGCUCCGUUGAAUGGAGUUUAUCAUG [A29U A41U U53G G88U A89G G117A]
GGAUCUUCUCGAUCUAACAAAAAAGACAUAUCUGCCACAAUGCUUGAGAGCAUCUUCGGAUGCAGAGGCGGCAGCCUUCGGUGGCGCGAUAGCGCCAACGUUCUCAACUAUGACACGCAAAACGCGUGCUCCGUUGAAUGGAGUUUAGCAUG [A29U A41U U148G]
GGAUCUUCUCGAUCUAACAAAAAAGACAUAUCUGCCACAAAGCUUGCGAGCAUCGUCGGAUGCAGAGGCGGCAGCCUUCGGUGGGGCGAUAACGCCAACGUUCUCAACUAUGACACGCAAAACGCGUGCUCCGUUGAAUGGAGUUAAUCAUG [A29U A47C U55G C85G G92A U146A]

Polymerase ribozyme fitness (log ratio), -4.09:
GGAUCUUCUCGAUCUAACAAAAAAGACAGAUCUGCCACAAAACUUGAGAGCAUCUUCGGAUGCAGAGGCGGCAGCCUUCGAUGGUGCGAUAGCGCCAACGUUCUCAACUAUGACACGCAAAACGCGUGCUCCGUUGAAUGGAGUUUAUCAUG [A29G G42A G81A C85U]
